Measured values reported in patent publication US20250270341A1 (Alector, published 2025).

T1: huCD98hc ECD Avi-His (human, UniProt P08195 105-529)
T1 construct: biotinylated on the Avi tag where captured on streptavidin; also called Human CD98-AVI-His; Human CD98hc-AVI-His
T1 sequence: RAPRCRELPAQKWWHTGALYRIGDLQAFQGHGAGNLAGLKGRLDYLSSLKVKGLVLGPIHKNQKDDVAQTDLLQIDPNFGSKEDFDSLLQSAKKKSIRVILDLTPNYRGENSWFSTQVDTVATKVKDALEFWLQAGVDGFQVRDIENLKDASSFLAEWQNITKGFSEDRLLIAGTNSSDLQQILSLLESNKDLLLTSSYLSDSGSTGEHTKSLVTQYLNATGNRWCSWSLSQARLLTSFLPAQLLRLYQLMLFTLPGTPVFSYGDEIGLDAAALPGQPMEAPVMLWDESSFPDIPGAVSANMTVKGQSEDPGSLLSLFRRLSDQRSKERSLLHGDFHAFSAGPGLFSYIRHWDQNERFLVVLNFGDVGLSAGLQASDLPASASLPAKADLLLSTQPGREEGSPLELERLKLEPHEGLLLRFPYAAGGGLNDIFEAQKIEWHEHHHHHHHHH

T2: Cyno CD98hc ECD Avi-His (cynomolgus macaque, UniProt P08195 105-529 (human entry))
T2 construct: biotinylated on the Avi tag where captured on streptavidin; also called Cyno CD98-AVI-His; Cyno CD98hc-AVI-His
T2 chain: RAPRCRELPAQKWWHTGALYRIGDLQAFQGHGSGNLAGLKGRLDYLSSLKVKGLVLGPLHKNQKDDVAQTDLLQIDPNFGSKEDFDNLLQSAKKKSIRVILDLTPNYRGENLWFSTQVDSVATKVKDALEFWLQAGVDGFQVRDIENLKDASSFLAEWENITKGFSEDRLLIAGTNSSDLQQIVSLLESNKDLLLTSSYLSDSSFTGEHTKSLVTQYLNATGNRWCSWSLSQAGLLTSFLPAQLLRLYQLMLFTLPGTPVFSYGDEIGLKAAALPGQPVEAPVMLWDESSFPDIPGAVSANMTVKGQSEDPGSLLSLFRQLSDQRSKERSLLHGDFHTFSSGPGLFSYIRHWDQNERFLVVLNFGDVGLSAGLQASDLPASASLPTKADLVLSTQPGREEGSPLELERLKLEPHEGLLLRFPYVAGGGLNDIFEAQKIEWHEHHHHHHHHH

B1: CD98hc.04.003 (2+1 bispecific antibody) (bispecific antibody)
heavy 1: EVRLLESGGGLVQPGGSLRLSCAASGFTFSNYAMGWVRQAPGKGLEWVSAISGSGGSTYYADSVKGRFTTSRDDSKNALYLQMNSLRAEDTAVYYCARGGPGWYAADVWGQGTTVTVSSASTKGPSVFPLAPSSKSTSGGTAALGCLVKDYFPEPVTVSWNSGALTSGVHTFPAVLQSSGLYSLSSVVTVPSSSLGTQTYICNVNHKPSNTKVDKKV[here human IgG1 Fc with changes without letters]GGGGSGGGGSGGGGSQVQLQQSGAELAKPGASLKMSCKASGYTFTDYYIHWVKQRPGQDLEWIGYINPNSAYTDSNQKFKDKATLTADKSSNTAYMQLSSLTSEDSAVYYCARKGHFYAPSFAYWGQGTLVTVSAGGSEGKSSGSGSESKSTGGSDIQMTQTTSSLSASLGDRVTISCRASQDISNYLNWYQQKPDGTVKLLIYYTSRLHSGVPSRFSGSGSGADYSLTISNLQQEDIATYFCQQGDTLPYTFGGGTKLEIE
heavy 2: EVRLLESGGGLVQPGGSLRLSCAASGFTFSNYAMGWVRQAPGKGLEWVSAISGSGGSTYYADSVKGRFTTSRDDSKNALYLQMNSLRAEDTAVYYCARGGPGWYAADVWGQGTTVTVSS[here human IgG1 constant region with changes without letters]
light: DIQMTQSPSSLSASVGDRVTITCRASQSISSYLNWYQQKPGKAPKLLIYAASSLQSGVPSRFSGSGSGTDFTLTISSLQPEDFATYYCQQADLPAFAFGGGTKVEIKRTVAAPSVFIFPPSDEQLKSGTASVVCLLNNFYPREAKVQWKVDNALQSGNSQESVTEQDSKDSTYSLSSTLTLSKADYEKHKVYACEVTHQGLSSPVTKSFNRGEC
B2: CD98hc.04.011 (2+1 bispecific antibody) (bispecific antibody)
heavy 1: EVRLLESGGGLVQPGGSLRLSCAASGFTFSNYAMGWVRQAPGKGLEWVSAISGSGGSTYYADSVKGRFTTSRDDSKNALYLQMNSLRAEDTAVYYCARGGPGWYAADVWGQGTTVTVSSASTKGPSVFPLAPSSKSTSGGTAALGCLVKDYFPEPVTVSWNSGALTSGVHTFPAVLQSSGLYSLSSVVTVPSSSLGTQTYICNVNHKPSNTKVDKKV[here human IgG1 Fc with changes without letters]GGGGSGGGGSGGGGSDVQLQESGPDLVKPSQSLSLTCSVTVYSFTSVYSWHWIRQFPGNKLEWMGYIHDSGTTNYNPSLKSRISVTRDTSKNQFFLQLNSVTTEDTATYYCARGRPYGYDGFAYWGQGTLVTVSAGGSEGKSSGSGSESKSTGGSDIQMTQSSSYLSVSLGDRVTITCKASDHINNWLAWYQQKPGNAPRLLITGAVNLETGVPSRFSGSGSGKDYTLSITSLQTEDVATYYCQQYWSIPRTFGGGTNLEIK
heavy 2: EVRLLESGGGLVQPGGSLRLSCAASGFTFSNYAMGWVRQAPGKGLEWVSAISGSGGSTYYADSVKGRFTTSRDDSKNALYLQMNSLRAEDTAVYYCARGGPGWYAADVWGQGTTVTVSS[here human IgG1 constant region with changes without letters]
light: B1 light
B3: CD98hc.04.010 (2+1 bispecific antibody) (bispecific antibody)
heavy 1: EVRLLESGGGLVQPGGSLRLSCAASGFTFSNYAMGWVRQAPGKGLEWVSAISGSGGSTYYADSVKGRFTTSRDDSKNALYLQMNSLRAEDTAVYYCARGGPGWYAADVWGQGTTVTVSSASTKGPSVFPLAPSSKSTSGGTAALGCLVKDYFPEPVTVSWNSGALTSGVHTFPAVLQSSGLYSLSSVVTVPSSSLGTQTYICNVNHKPSNTKVDKKV[here human IgG1 Fc with changes without letters]GGGGSGGGGSGGGGSQVQLQQSGAELMKPGASVKISCKATGYTFSTYWIEWVKQRPGHGLEWIGEILPGSGTTTYNEKFKGKATFTADTSSNTAYMQLSSLTSEDSAVYYCARRTVYYRYEGIDYWGQGTTLTVSSGGSEGKSSGSGSESKSTGGSQIVLTQSPAIMSASPGEKVTITCSASSSVSYMFWFQQRPGTSPKLWIYTTSNLASGVPARFSGSGSGTSYSLTISRMEAEDAATYYCQQKNNYPFTFGSGTKLEIK
heavy 2: EVRLLESGGGLVQPGGSLRLSCAASGFTFSNYAMGWVRQAPGKGLEWVSAISGSGGSTYYADSVKGRFTTSRDDSKNALYLQMNSLRAEDTAVYYCARGGPGWYAADVWGQGTTVTVSS[here human IgG1 constant region with changes without letters]
light: B1 light
B4: CD98hc.04.012 (2+1 bispecific antibody) (bispecific antibody)
heavy 1: EVRLLESGGGLVQPGGSLRLSCAASGFTFSNYAMGWVRQAPGKGLEWVSAISGSGGSTYYADSVKGRFTTSRDDSKNALYLQMNSLRAEDTAVYYCARGGPGWYAADVWGQGTTVTVSSASTKGPSVFPLAPSSKSTSGGTAALGCLVKDYFPEPVTVSWNSGALTSGVHTFPAVLQSSGLYSLSSVVTVPSSSLGTQTYICNVNHKPSNTKVDKKV[here human IgG1 Fc with changes without letters]GGGGSGGGGSGGGGSQVQLQQSGADLVRPGDSVKISCKGSGYTFTDNTLHWVKQSHAKSLEWIGVISPYYGDASYNQKFKGKATMTVDKSSSTAYMELARLTSEDSAIYYCARVGGRLRLGYYFDHWGQGTTLTVSSGGSEGKSSGSGSESKSTGGSNIMMTQSPSSLAVSAGEKVTMNCKSSQSVLSSSNQKNYLAWYQQKPGQSPKLLIYWASTRESGVPARFTGSGSGTDFSLTITSVQAEDLAVYYCLQYLSSYTFGGGTKLEIK
heavy 2: EVRLLESGGGLVQPGGSLRLSCAASGFTFSNYAMGWVRQAPGKGLEWVSAISGSGGSTYYADSVKGRFTTSRDDSKNALYLQMNSLRAEDTAVYYCARGGPGWYAADVWGQGTTVTVSS[here human IgG1 constant region with changes without letters]
light: B1 light
B5: CD98hc.04.013 (2+1 bispecific antibody) (bispecific antibody)
heavy 1: EVRLLESGGGLVQPGGSLRLSCAASGFTFSNYAMGWVRQAPGKGLEWVSAISGSGGSTYYADSVKGRFTTSRDDSKNALYLQMNSLRAEDTAVYYCARGGPGWYAADVWGQGTTVTVSSASTKGPSVFPLAPSSKSTSGGTAALGCLVKDYFPEPVTVSWNSGALTSGVHTFPAVLQSSGLYSLSSVVTVPSSSLGTQTYICNVNHKPSNTKVDKKV[here human IgG1 Fc with changes without letters]GGGGSGGGGSGGGGSEVQLVESGGDLGMPGGSLKLSCAASGFALSGYDMSWVRQTPDKRLEWVAYLSSGGGSTYYPYTVKGRFTISRDNAQNTLYLQMSSLKSEDTAIYYCARHSEVRPWFGYWGQGTLVTVSAGGSEGKSSGSGSESKSTGGSDIVMSQSPSSLAVSVGEKVTLTCKSSQSLLYSGNQKNYLAWYQQNPGQSPKLLIYWASTRESGVPDRFTGSGSGTDFTLTISSVKAEDLAVYYCQQYYTYPPTFGAGTKLGLK
heavy 2: EVRLLESGGGLVQPGGSLRLSCAASGFTFSNYAMGWVRQAPGKGLEWVSAISGSGGSTYYADSVKGRFTTSRDDSKNALYLQMNSLRAEDTAVYYCARGGPGWYAADVWGQGTTVTVSS[here human IgG1 constant region with changes without letters]
light: B1 light
B6: CD98hc.04.009 (2+1 bispecific antibody) (bispecific antibody)
heavy 1: EVRLLESGGGLVQPGGSLRLSCAASGFTFSNYAMGWVRQAPGKGLEWVSAISGSGGSTYYADSVKGRFTTSRDDSKNALYLQMNSLRAEDTAVYYCARGGPGWYAADVWGQGTTVTVSSASTKGPSVFPLAPSSKSTSGGTAALGCLVKDYFPEPVTVSWNSGALTSGVHTFPAVLQSSGLYSLSSVVTVPSSSLGTQTYICNVNHKPSNTKVDKKV[here human IgG1 Fc with changes without letters]GGGGSGGGGSGGGGSQVQLKESGPGLVAPSQSLSITCTVSGFSLTSYGVHWVRQPPGKGLEWLGVIWAGGSTYYNSALMSRLSISKDNAKSQVLLKMSSLQTDDTAMYYCARDNYGGVYLDVWGAGTTVTVSSGGSEGKSSGSGSESKSTGGSENVLTQSPASMSASPGEKVTMTCRASSSVSSSYLHWYQQKSGASPKLWIYSTSNLASGVPARFSGSGSGTSYSLTISSVEAEDAATYYCQQYSGYPLTFGSGTKLEIK
heavy 2: EVRLLESGGGLVQPGGSLRLSCAASGFTFSNYAMGWVRQAPGKGLEWVSAISGSGGSTYYADSVKGRFTTSRDDSKNALYLQMNSLRAEDTAVYYCARGGPGWYAADVWGQGTTVTVSS[here human IgG1 constant region with changes without letters]
light: B1 light
B7: CD98hc.04.006 (2+1 bispecific antibody) (bispecific antibody)
heavy 1: EVRLLESGGGLVQPGGSLRLSCAASGFTFSNYAMGWVRQAPGKGLEWVSAISGSGGSTYYADSVKGRFTTSRDDSKNALYLQMNSLRAEDTAVYYCARGGPGWYAADVWGQGTTVTVSSASTKGPSVFPLAPSSKSTSGGTAALGCLVKDYFPEPVTVSWNSGALTSGVHTFPAVLQSSGLYSLSSVVTVPSSSLGTQTYICNVNHKPSNTKVDKKV[here human IgG1 Fc with changes without letters]GGGGSGGGGSGGGGSEVNLVESGGDLVQPGGSLRLSCATSGFTFTDYFMSWVRQPPGKALEWLGFIRNKAYGYTTEYSASVKGRFTISRDNSQSIFYLQMNTLRLEDSATYYCARGPFISTAPFAYWGQGTLVTVSAGGSEGKSSGSGSESKSTGGSDIVMSQSPSSLAVSVGETVTMSCKSSQSLLYSSNQKNYLAWYQQKPGQSPKLLIYWGSTRESGVPDRFTGSGSGTDFTLTISSVKAEDLAVYYCQHYYGYPWTFGGGTKLEIK
heavy 2: EVRLLESGGGLVQPGGSLRLSCAASGFTFSNYAMGWVRQAPGKGLEWVSAISGSGGSTYYADSVKGRFTTSRDDSKNALYLQMNSLRAEDTAVYYCARGGPGWYAADVWGQGTTVTVSS[here human IgG1 constant region with changes without letters]
light: B1 light

Biological target: T1, huCD98hc ECD Avi-His
Experiment: ELISA, 1 ug/ml

Q: Which “ELISA fold-change relative to isotype hIgG” value does the source give for B1 here?
A: Its value is 30.1.

Q: For B2, which “ELISA fold-change relative to isotype hIgG” value is on record?
A: The value was 2.7.

Q: For B3, which “ELISA fold-change relative to isotype hIgG” value is on record?
A: Its value is 27.7.

Q: For B4, which “ELISA fold-change relative to isotype hIgG” value is on record?
A: The value was 29.2.

Q: For B5, which “ELISA fold-change relative to isotype hIgG” value is on record?
A: Its value is 23.8.

Q: Which “ELISA fold-change relative to isotype hIgG” value does the source give for B6 here?
A: Its value is 14.9.

Q: B7 was tested. Which “ELISA fold-change relative to isotype hIgG” value did it give?
A: Its value is 27.9.

Biological target: T2, Cyno CD98hc ECD Avi-His
Experiment: ELISA, 1 ug/ml

Q: For B1, which “ELISA fold-change relative to isotype hIgG” value is on record?
A: The value was 28.

Q: Which “ELISA fold-change relative to isotype hIgG” value does the source give for B2 here?
A: The value was 2.1.

Q: B3 was tested. Which “ELISA fold-change relative to isotype hIgG” value did it give?
A: Its value is 29.2.

Q: For B4, which “ELISA fold-change relative to isotype hIgG” value is on record?
A: Its value is 21.4.

Q: With B5 as the binder, how does the “ELISA fold-change relative to isotype hIgG” value read?
A: The value was 23.6.

Q: How did the “ELISA fold-change relative to isotype hIgG” value turn out when B6 was run?
A: Its value is 10.8.

Q: How did the “ELISA fold-change relative to isotype hIgG” value turn out when B7 was run?
A: Its value is 24.4.
